The record followed here is PMC5892938.

This is one part of the list. At the low end of the ranking, values are background and their order means little.

This test has as its target GST-SBP-SLBP (stem-loop binding protein) (UniProt Q14493). The experiment in a line: targeted RNA Bind-n-Seq.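 Also: DESeq read counts versus GST-SBP nonspecific binding control pulldown.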 As to conditions: RBNS binding buffer: 25 mM Tris pH 7.5, 150 mM KCl, 3 mM MgCl2, 0.1% Tween, 0.5 mg/mL BSA, 1 mM DTT; 27 nM protein, 750 pM RNA pool; temperature not stated; high values mean tight binding.
With “GGUCACGUCUCAAUCAACUCAUUCCCCAGGGAAAGCCCUGGCAAAUUCAACAGCUCGCAGUCAAG”, the binding signal (log2 fold change) was found to be 0.0362.

With “GGUCACGUCUCAAUCAACUCCUAAGAGGGGGGGAAAACCCCUUUACCCUCCAUAUCAACAGCUCGCAGUCAAG”, the binding signal (log2 fold change) stood at 0.202.

“GGUCACGUCUCAAUCAACUCAUCCGCAGGAGUUUUCUCCUGGAAUUUCAACAGCUCGCAGUCAAG”: the binding signal (log2 fold change) was -0.0337.

As for “GGUCACGUCUCAAUCAACUCAUUUUCCAGGGAAAGCCCUGGUUUUCUCAACAGCUCGCAGUCAAG”, the binding signal (log2 fold change) was -0.0707.

In the case of “GGUCACGUCUCAAUCAACUCUCCAGAGGGGGGGAAAACCCCUUUACCCUCAUCGUCAACAGCUCGCAGUCAAG”, the binding signal (log2 fold change) is 0.252.

As for “GGUCACGUCUCAAUCAACUCAUGUCCAGGAGUUUCCUCCUGCUUUUUCAACAGCUCGCAGUCAAG”, the binding signal (log2 fold change) was -0.0312.

For “GGUCACGUCUCAAUCAACUCAACUCCCAGGGAAAUCCCUGGCUUUUUCAACAGCUCGCAGUCAAG”, the binding signal (log2 fold change) is -0.0242.

Regarding “GGUCACGUCUCAAUCAACUCUUCCUCAGGAGUUUUCUCCUGUUUACUCAACAGCUCGCAGUCAAG”, the binding signal (log2 fold change) is -0.0473.

As to “GGUCACGUCUCAAUCAACUCAAAAGAGGGGGGGAAAACCCCUUUACCCUCGUCAUCAACAGCUCGCAGUCAAG”, the binding signal (log2 fold change) is -0.086.

For “GGUCACGUCUCAAUCAACUCUAAAGAGGGGGGGAAAACCCCUUUACCCUCAACAUCAACAGCUCGCAGUCAAG”, the binding signal (log2 fold change) was -0.0977.

For the sequence “GGUCACGUCUCAAUCAACUCAUCUCCCAGGGAAAGCCCUGGUUUUCUCAACAGCUCGCAGUCAAG”, the binding signal (log2 fold change) was -0.192.

“GGUCACGUCUCAAUCAACUCAAUCCCCAGGGAAACCCCUGGUAAAUUCAACAGCUCGCAGUCAAG”: the binding signal (log2 fold change) is -0.121.

For the sequence “GGUCACGUCUCAAUCAACUCAUUCUCAGGAGUUUUCUCCUGUUAUUUCAACAGCUCGCAGUCAAG”, the binding signal (log2 fold change) is -0.0806.

Take “GGUCACGUCUCAAUCAACUCUUCUUCCAGGGAAAUCCCUGGUAUUUUCAACAGCUCGCAGUCAAG”: the binding signal (log2 fold change) was -0.466.

For “GGUCACGUCUCAAUCAACUCAUUCGAGGGGGGGAAAACCCCUUUACCCUCUACCUCAACAGCUCGCAGUCAAG”, the binding signal (log2 fold change) was -0.0771.

As for “GGUCACGUCUCAAUCAACUCUACGCCAGGAGUUUUCUCCUGCUUUUUCAACAGCUCGCAGUCAAG”, the binding signal (log2 fold change) was -0.215.

Take “GGUCACGUCUCAAUCAACUCAAUCUCCAGGGAAACCCCUGGUAUUCUCAACAGCUCGCAGUCAAG”: the binding signal (log2 fold change) is -0.0331.

On to “GGUCACGUCUCAAUCAACUCUUCCUCCAGGGAAAUCCCUGGCUUUCUCAACAGCUCGCAGUCAAG”, for which the binding signal (log2 fold change) was -0.0301.

Turning to “GGUCACGUCUCAAUCAACUCAUCGUCAGGAGUUUUCUCCUGUUUACUCAACAGCUCGCAGUCAAG”, the binding signal (log2 fold change) is 0.105.

Take “GGUCACGUCUCAAUCAACUCAUUUCCAGGAGUUUACUCCUGCAAUUUCAACAGCUCGCAGUCAAG”: the binding signal (log2 fold change) amounted to 0.215.

On to “GGUCACGUCUCAAUCAACUCUUCCUCCAGGGAAAUCCCUGGUUUUUUCAACAGCUCGCAGUCAAG”, for which the binding signal (log2 fold change) was -0.0926.

On to “GGUCACGUCUCAAUCAACUCUUUUCCCAGGGAAAACCCUGGCUUACUCAACAGCUCGCAGUCAAG”, for which the binding signal (log2 fold change) is 0.0362.

As to “GGUCACGUCUCAAUCAACUCAUAAGAGGGGGGGAAAACCCCUUUACCCUCGUCAUCAACAGCUCGCAGUCAAG”, the binding signal (log2 fold change) was 0.103.

“GGUCACGUCUCAAUCAACUCUUUUCCAGGAGUUUACUCCUGUAUACUCAACAGCUCGCAGUCAAG”: the binding signal (log2 fold change) amounted to 0.0395.

With “GGUCACGUCUCAAUCAACUCUAUCCCAGGAGUUUCCUCCUGCUUUCUCAACAGCUCGCAGUCAAG”, the binding signal (log2 fold change) is -0.125.

Consider “GGUCACGUCUCAAUCAACUCUCUCGAGGGGGGGAAAACCCCUUUACCCUCUACAUCAACAGCUCGCAGUCAAG”, for which the binding signal (log2 fold change) was -0.101.

In the case of “GGUCACGUCUCAAUCAACUCUUAAGAGGGGGGGAAAACCCCUUUGCCCUCAUCAUCAACAGCUCGCAGUCAAG”, the binding signal (log2 fold change) was -0.114.

With “GGUCACGUCUCAAUCAACUCAAUAGAGGGGGGGAAAACCCCUUUACCCUCCAACUCAACAGCUCGCAGUCAAG”, the binding signal (log2 fold change) came to 0.254.

In the case of “GGUCACGUCUCAAUCAACUCCUCUGAGGGGGGGAAAACCCCUUUACCCUCCAUAUCAACAGCUCGCAGUCAAG”, the binding signal (log2 fold change) is -0.077.

As for “GGUCACGUCUCAAUCAACUCUUCGGAGGGGGGGAAAACCCCUUUACCCUCGUCAUCAACAGCUCGCAGUCAAG”, the binding signal (log2 fold change) was 0.152.

“GGUCACGUCUCAAUCAACUCAUUUUCAGGAGUUUACUCCUGCUAAUUCAACAGCUCGCAGUCAAG”: the binding signal (log2 fold change) is 0.0742.

For “GGUCACGUCUCAAUCAACUCAUUUCCCAGGGAAAGCCCUGGCUUACUCAACAGCUCGCAGUCAAG”, the binding signal (log2 fold change) came out at 0.091.

Regarding “GGUCACGUCUCAAUCAACUCUACUUCCAGGGAAAGCCCUGGUUUAUUCAACAGCUCGCAGUCAAG”, the binding signal (log2 fold change) stood at 0.126.

As for “GGUCACGUCUCAAUCAACUCUAUCCCCAGGGAAACCCCUGGCAUUCUCAACAGCUCGCAGUCAAG”, the binding signal (log2 fold change) is -0.123.

On to “GGUCACGUCUCAAUCAACUCAGUCCCCAGGGAAACCCCUGGCAUAUUCAACAGCUCGCAGUCAAG”, for which the binding signal (log2 fold change) worked out at 0.0609.

In the case of “GGUCACGUCUCAAUCAACUCCUUAGAGGGGGGGAAAACCCCUUUGCCCUCGUCAUCAACAGCUCGCAGUCAAG”, the binding signal (log2 fold change) was found to be 0.203.

In the case of “GGUCACGUCUCAAUCAACUCUUUCCCCAGGGAAAGCCCUGGUAAAUUCAACAGCUCGCAGUCAAG”, the binding signal (log2 fold change) came out at 0.0435.

As to “GGUCACGUCUCAAUCAACUCAUCUCCAGGAGUUUGCUCCUGCUAAUUCAACAGCUCGCAGUCAAG”, the binding signal (log2 fold change) was -0.0276.

“GGUCACGUCUCAAUCAACUCCCUCGAGGGGGGGAAAACCCCUUUACCCUCUAUAUCAACAGCUCGCAGUCAAG”: the binding signal (log2 fold change) came out at 0.174.

As to “GGUCACGUCUCAAUCAACUCAAUCUCCAGGGAAAUCCCUGGCAUACUCAACAGCUCGCAGUCAAG”, the binding signal (log2 fold change) is -0.0198.

In the case of “GGUCACGUCUCAAUCAACUCCCUGGAGGGGGGGAAAACCCCUUUACCCUCAAAUUCAACAGCUCGCAGUCAAG”, the binding signal (log2 fold change) is -0.197.

Consider “GGUCACGUCUCAAUCAACUCUUUUCCAGGAGUUUCCUCCUGCAUACUCAACAGCUCGCAGUCAAG”, for which the binding signal (log2 fold change) amounted to 0.112.

With “GGUCACGUCUCAAUCAACUCAAGUCCAGGAGUUUCCUCCUGUAAUCUCAACAGCUCGCAGUCAAG”, the binding signal (log2 fold change) was 0.0479.

As for “GGUCACGUCUCAAUCAACUCUAUCUCCAGGGAAAGCCCUGGUUAUCUCAACAGCUCGCAGUCAAG”, the binding signal (log2 fold change) amounted to 0.334.

Take “GGUCACGUCUCAAUCAACUCAUCUUCCAGGGAAAGCCCUGGCUUUUUCAACAGCUCGCAGUCAAG”: the binding signal (log2 fold change) was -0.0377.

On to “GGUCACGUCUCAAUCAACUCUUCCUCAGGAGUUUCCUCCUGUAUACUCAACAGCUCGCAGUCAAG”, for which the binding signal (log2 fold change) is -0.0324.

On to “GGUCACGUCUCAAUCAACUCAACUCCCAGGGAAACCCCUGGUAUAUUCAACAGCUCGCAGUCAAG”, for which the binding signal (log2 fold change) was determined as 0.106.
